± gives the standard deviation of the averaged measurements. This is one part of the list.

For the experiment, the system named is PfAP2-EXP AP2 domain (GST-tagged). Kind of experiment: gcPBM binding intensity (ln(normalized median fluorescence intensity)); higher = stronger DNA binding. In a few lines:
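The highest Masliner-normalised natural-log median intensity across replicate spots of either probe orientation is reported as binding intensity. GST-tagged P. falciparum DNA-binding domains expressed in E. coli were applied for 1 h to an Agilent 4 × 180k array of primer-extended double-stranded 36-bp intergenic genomic probes plus negative controls, and bound protein was detected with Alexa488 anti-GST antibody and scanned at 488 nm.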
As for “ATTGAGGCTGGTTATATAATAATTTTATTATTTTAG [GTGCAC_negctrl_site409]”, the “gcPBM binding intensity (ln)” value was found to be 8.4 ± 0.34.

Turning to “TAAAAGTTGAAGCACACACACAAAAGAAATACAATA [CACACA_site6649]”, the “gcPBM binding intensity (ln)” value was found to be 8.96 ± 0.45.

For the sequence “TTTTTTTTTTTTTATTGTACATACTTTTAAATATAT [XGTACX_site4303]”, the “gcPBM binding intensity (ln)” value was found to be 8.55 ± 0.59.

GTATATAAATAAATAGTGCATTATTAAAAATAATGT: the “gcPBM binding intensity (ln)” value came out at 8.88 ± 0.32.

Turning to “ATAAATAAAGGACACACACACACACTAATAAAAAAA [CACACA_site8840]”, the “gcPBM binding intensity (ln)” value is 8.75 ± 0.64.

Take “TATATAATATATTTATGTACTCACAATGGGGTCTAC [XGTACX_site2691]”: the “gcPBM binding intensity (ln)” value turned out to be 9.02 ± 0.64.

For the sequence “TATGAAAAGTAAAGTACACACAGGAAAAAAAAAAAA [CACACA_site1749]”, the “gcPBM binding intensity (ln)” value is 8.66 ± 0.53.

For “TTTGTTATATTTAATACACACATATTATAAACACAT [CACACA_site7703]”, the “gcPBM binding intensity (ln)” value stood at 8.54 ± 0.39.

As for “GTTCATATAATAAAATGTACATAATATATTATATAT [XGTACX_site7623]”, the “gcPBM binding intensity (ln)” value is 8.52 ± 0.36.

Consider “AAATTACTGTAAAAAAGTACAGAAGTTCTTATTTTT [XGTACX_site7416]”, for which the “gcPBM binding intensity (ln)” value was determined as 8.14 ± 0.26.

As for “AGCTACAAAAATTAATATATATATGTATAGTTATAC [TGCATGCA_negctrl_site531]”, the “gcPBM binding intensity (ln)” value came out at 8.28 ± 0.41.

With “TATATCTATTTCAAATGTACTTATATGATTCTTATA [XGTACX_site6277]”, the “gcPBM binding intensity (ln)” value worked out at 8.4 ± 0.37.

Consider “AACAAATATGATTTTTTATATATTTTTAAATTTGGT [GTGCAC_negctrl_site189]”, for which the “gcPBM binding intensity (ln)” value was 8.12 ± 0.4.

“AGTTTAATTTTGTATACACACATTTGAATTATTAAT [CACACA_site7625]”: the “gcPBM binding intensity (ln)” value worked out at 8.77 ± 0.5.

Take “AAATGTTCAGAAACTATTATAAAAATGGAATAATAT [CACACA_negctrl_site1544]”: the “gcPBM binding intensity (ln)” value turned out to be 8.58 ± 0.51.

For the sequence “TGCCATCATATCATAGGTACACAAACATATAAAGAA [XGTACX_site4137]”, the “gcPBM binding intensity (ln)” value was determined as 9.03 ± 0.46.

Consider “GTATTATATTTTAATACACACCCAAATATTAAAAAG [CACACA_site8968]”, for which the “gcPBM binding intensity (ln)” value was determined as 8.58 ± 0.23.

Regarding “TTAACAAATAAATGCACACATATATATAAATAATAT [CACACA_site28]”, the “gcPBM binding intensity (ln)” value came to 8.37 ± 0.29.

As to “TTATGCTCAAAGAAAAGTACATAAATAAAAGTATAT [XGTACX_site7365]”, the “gcPBM binding intensity (ln)” value was found to be 8.65 ± 0.39.

As for “TAAATATTATATTTATGTACATAAGTTTTTTTTAAT [XGTACX_site3559]”, the “gcPBM binding intensity (ln)” value was 8.54 ± 0.35.

As for “CTTAATATGGATATTGCATGTAGAACATGAACAATA [TGCATGCA_site760]”, the “gcPBM binding intensity (ln)” value was 8.65 ± 0.4.

Turning to “TATATGTAGATTAAACGTACTTACAACGGAATTATC [XGTACX_site3036]”, the “gcPBM binding intensity (ln)” value was determined as 8.78 ± 0.4.

Take “GAATATTCAACATAATGTACAAGTATTCATTTCTTT [XGTACX_site7860]”: the “gcPBM binding intensity (ln)” value came to 8.45 ± 0.35.

As for “AAAATTCATAAATACACACACGCACATATATATATA [CACACA_site4227]”, the “gcPBM binding intensity (ln)” value stood at 9.91 ± 0.32.

Turning to “TAATAAACTTAAAAATGTACATATATTTATTATTAC [XGTACX_site4321]”, the “gcPBM binding intensity (ln)” value was found to be 8.34 ± 0.35.

For “CAAAAATAAAAGAAATGTACAAAAAATAATAAAAAA [XGTACX_site6597]”, the “gcPBM binding intensity (ln)” value was determined as 8.76 ± 0.54.

Consider “AAAAATTTTCAAGTGTGTACATATTTTCATTTAACA [XGTACX_site6186]”, for which the “gcPBM binding intensity (ln)” value turned out to be 8.61 ± 0.4.

Consider “AAATATATATTCATGTGTACACACAAAAAAAAATAA [XGTACX_site4552]”, for which the “gcPBM binding intensity (ln)” value was found to be 8.62 ± 0.057.

As to “TTTATACTTTTAAATTGTACTATAAAAAGGAATACA [XGTACX_site2537]”, the “gcPBM binding intensity (ln)” value worked out at 8.32 ± 0.27.

“TTTTTATTTAGCTAAGCATGCTAACGATGACACTTC [TGCATGCA_site79]”: the “gcPBM binding intensity (ln)” value stood at 8.66 ± 0.45.

“ATGTATATATTTTTATGTACATATTTTTAATTTATA [XGTACX_site2982]”: the “gcPBM binding intensity (ln)” value came out at 8.13 ± 0.29.

For the sequence “TAATAAAAAATTAAAAAAAATAAAAATAAAAATAAA [GTGCAC_negctrl_site78]”, the “gcPBM binding intensity (ln)” value came out at 8.26 ± 0.49.

Regarding “CATACATATACTTTGTGTACATATATATATTATATA [XGTACX_site97]”, the “gcPBM binding intensity (ln)” value was determined as 8.54 ± 0.24.

As to “AAGAAAAAGTATCCTCTATCTTTATATAAACTATTA [TGCATGCA_negctrl_site2]”, the “gcPBM binding intensity (ln)” value is 8.09 ± 0.42.

In the case of “AAGAAAATGTATATATGTACATACAATCAAAAGAAG [XGTACX_site3454]”, the “gcPBM binding intensity (ln)” value came out at 9.12 ± 0.31.

With “AAAATATATTAAGGCACACACATACAGATATATATA [CACACA_site5951]”, the “gcPBM binding intensity (ln)” value was 8.9 ± 0.37.

With “TACGTGAAATTATATACACACATAAATATGGGTGTA [CACACA_site5687]”, the “gcPBM binding intensity (ln)” value stood at 8.04 ± 0.36.

As to “TTTTTTCTTTTTTTTTTTTTTTTCTTTTTTTTTTTT [GTGCAC_negctrl_site196]”, the “gcPBM binding intensity (ln)” value stood at 8.13 ± 0.55.

In the case of “TACATACACAAATACACACACAAATACATACCCAAA [CACACA_site4550]”, the “gcPBM binding intensity (ln)” value worked out at 8.74 ± 0.61.

With “GGTATACTCAAGTATACACACATATATATATATATA [CACACA_site5746]”, the “gcPBM binding intensity (ln)” value turned out to be 10.2 ± 0.45.

Consider “TATGCATTTATGCATTGTACTTTTATAGATTCCACC [XGTACX_site7121]”, for which the “gcPBM binding intensity (ln)” value was 8.32 ± 0.35.

For the sequence “AACAATATGGATGTATGTACACATATAGAACGTTAT [XGTACX_site7142]”, the “gcPBM binding intensity (ln)” value was 8.98 ± 0.33.

Regarding “TTAAACTATACCAAAACACACATACAAAATATAAAA [CACACA_site5494]”, the “gcPBM binding intensity (ln)” value was 8.81 ± 0.47.

In the case of “TATGTATATATATTAACACACAAAAAAAAAAAAAAA [CACACA_site1812]”, the “gcPBM binding intensity (ln)” value was found to be 8.14 ± 0.69.

On to “ATGAACGGAAAAATATATATAAATATATATATCATG [XGTACX_negctrl_site342]”, for which the “gcPBM binding intensity (ln)” value stood at 8.44 ± 0.37.

Turning to “TACAAAAAAAAAGAACGTACAAAAAATTTCAAAAAT [XGTACX_site5860]”, the “gcPBM binding intensity (ln)” value is 8.61 ± 0.4.

As for “ATATTATATATACACGCACACACACTAATATATATA [CACACA_site9092]”, the “gcPBM binding intensity (ln)” value is 8.83 ± 0.27.

For the sequence “GAAATTTTATTACTTTTACACACCTATATATTATTC [CACACA_site9076]”, the “gcPBM binding intensity (ln)” value turned out to be 8.69 ± 0.41.

Take “TAAAATAACTCACAAAGTACAAAAATAAGCATATGA [XGTACX_site7046]”: the “gcPBM binding intensity (ln)” value is 8.78 ± 0.64.

Consider “TACATGATAGATCACACACACATATAAATATATATA [CACACA_site5562]”, for which the “gcPBM binding intensity (ln)” value came out at 8.41 ± 0.43.

On to “ACATAAGACACAAATACACACAAAAATATATAACAA [CACACA_site4082]”, for which the “gcPBM binding intensity (ln)” value was 8.77 ± 0.46.

As to “AAAAAAAAAAAAAAAACACACACATATATATATATA [CACACA_site8571]”, the “gcPBM binding intensity (ln)” value was 10.1 ± 0.21.

“TTCATGTCCTATTAATGTACTCTACACACATATAAG [XGTACX_site899]”: the “gcPBM binding intensity (ln)” value turned out to be 8.73 ± 0.35.

As to “TGTATATAATCGAGTGCACACACAAAAAAAAAGTGA [CACACA_site8417]”, the “gcPBM binding intensity (ln)” value amounted to 8.97 ± 0.38.

For the sequence “ATTTTATATACACTTTGTACTTATTTTATTCTTCTT [XGTACX_site4200]”, the “gcPBM binding intensity (ln)” value amounted to 8.95 ± 0.37.

As for “TTTATTTATTTTTGTTGTACACTTGTATATATTATT [XGTACX_site6486]”, the “gcPBM binding intensity (ln)” value stood at 9.06 ± 0.41.
